Laboratory results from the supplement of paper PMC10126150.
Values marked as one replicate rest on one cluster of the flow cell; about a third of the high ones do not repeat.

System: ATP
Assay: switch fluorescence ratio, 500 uM ATP over buffer (Cy3 cluster intensity, sum of 5 cycles each) (fold (ratio)); higher = stronger signal-on switching upon ATP binding; sequences stand for … in TCGTCGGCAGCGTCAGATGTGTATAAGAGACAGTTTTTTTTTTTTTTTTTTTTTTTTT…TC
Details: aptamer strand: ATP DNA aptamer (quencher-CACCTGGGGGAGTATTGCGGAGGAAGG + anchor), 100 nM annealed; ATP concentration: 500 uM; one replicate
Summary of the method: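 Exposure to 500 uM ATP lasted 15 min at 22 °C before imaging, and a selection-buffer image was taken beforehand, for Cy3-labelled switching-strand clusters on a modified Illumina MiSeq flow-cell annealed to 100 nM quencher-labelled ATP aptamer. Five buffer/ATP cycles were run with NaOH stripping and re-annealing between them. The fluorescence ratio per cluster is summed target-cycle over summed buffer-cycle Cy3 intensity, averaged per switch-domain sequence. Clusters outside 100-1000 RFU were excluded.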

| Sequence | switch fluorescence ratio |
| --- | --- |
| ATCCCTTGTA | 1.04 |
| TTGTTGCGCT | 1.04 |
| TAAGTCGAGC | 0.962 |
| CGGAACGGGA | 1.11 |
| ATTTAACCGT | 0.958 |
| GTGTGACGAG | 0.991 |
| TCCTGGCAGT | 1.53 |
| GATGGGCTGG | 0.972 |
| GATTAACTGA | 1.03 |
| CGCCGTCGCA | 0.999 |
| TGGCGTTGTA | 1.01 |
| CAATAGACGT | 0.997 |
| TAAAGTGGGG | 1.02 |
| TACCACAAAA | 1.01 |
| TTAAGCGCAG | 1.01 |
| CACATAGAT | 1.08 |
| TACCGAGTAG | 1.01 |
| CCACATACTA | 1.46 |
| GGCGTAGCTA | 0.997 |
| TGCAAAATGG | 1.01 |
| TGATTGCTGA | 0.994 |
| TTCGAAGAGC | 1.04 |
| TTAGAACTCG | 1.1 |
| TTAGTAGAAT | 0.983 |
| GCCAAGGGTG | 1.22 |

| Sequence | switch fluorescence ratio |
| --- | --- |
| TCAGGCACGG | 1.01 |
| AAGGGCCAGA | 0.965 |
| TCATACGGAG | 1.04 |
| ATGACGGCTA | 0.993 |
| GTCGGACACG | 0.965 |
| CGGAACTGAC | 1.07 |
| TTGGGTTAT | 1.06 |
| ACATTAATCA | 1.08 |
| TTCCTAATGA | 1.01 |
| CGGCACGACC | 1.08 |
| TCCCGTGATC | 2.55 |
| TCAGTTGATT | 1.02 |
| GAGTGCATGT | 0.968 |
| CTTTCGTATG | 1.05 |
| CGTACGATGC | 1.13 |
| TAGGAACGAT | 1.02 |
| AGTTGAGGGT | 1.08 |
| TGAGTCGGTC | 1 |
| TCGACTCTTG | 0.947 |
| CCACTGTACA | 1.56 |
| TGTGTGGAAT | 0.971 |
| GGTCAATGC | 2.3 |
| AGCATTAACA | 0.994 |
| CCTGAGTATG | 1.04 |
| GGGCGAGGCC | 1.03 |

| Sequence | switch fluorescence ratio |
| --- | --- |
| CTTGGGATGG | 0.994 |
| GCACTATTGC | 1.03 |
| AGTATGAGAA | 0.977 |
| ATGTATAAAA | 0.984 |
| AAGTAGACGG | 0.993 |
| TTCCGCGACA | 4.15 |
| GTTTGCTTTC | 1.02 |
| TGCATTGAAT | 0.99 |
| AAGCAAAGTG | 0.979 |
| TTGTATGCAC | 0.981 |
| ATCCTTAGAC | 0.996 |
| ACTGATAGGA | 1.07 |
| AATGCCATAA | 0.989 |
| GCGTCCTAAA | 0.957 |
| CCAGTCTTAG | 1 |
| GACCATCCAG | 0.978 |
| AGTGACCGT | 1.01 |
| AGACCAGAGG | 1.1 |
| GCGGTACAGT | 1.03 |
| AGGGACACCT | 1.04 |
| GGTCAATTCT | 0.982 |
| GACAGGGCAA | 1.06 |
| TCAGTCTCA | 1.01 |
| GCAAACCACT | 1.03 |
| AGTGCCCTGC | 1.01 |

| Sequence | switch fluorescence ratio |
| --- | --- |
| GCCTCGCGAT | 2.75 |
| ACGGTGTCCC | 0.979 |
| TTGATTTTCC | 0.963 |
| TTCCCCGACT | 1.06 |
| TGGAGAGGAA | 0.997 |
| GCATTTGCGT | 1 |
| GCGGGATCGA | 1.14 |
| GAACACGGTT | 1.03 |
| AAATAGCGAA | 0.983 |
| TTAATGCCAG | 1.03 |
| AATGTGCATG | 0.93 |
| GTCCTGACCA | 0.999 |
| GACATTGGGT | 1.01 |
| ATGCCGGGTA | 0.957 |
| CGCATGCGGT | 1.04 |
| TTCGGAAGGT | 0.999 |
| CGCTGAGGGT | 0.97 |
| ATACGCAACT | 2.14 |
| TGGCAGCGGC | 0.982 |
| TCCCGATGTG | 1.11 |
| GGCAGGGGT | 0.972 |
| CAACGCGAGC | 2.92 |
| TGGCCCGCCG | 0.965 |
| TGCTAGCTCA | 1.07 |
| CCGGAATGCG | 2.11 |

| Sequence | switch fluorescence ratio |
| --- | --- |
| CGTTCGAAGC | 1.08 |
| TTGAAGGTAG | 1 |
| GGAGTCTAAC | 0.978 |
| AACCCAGTCG | 1.06 |
| AGACTGCACT | 1.38 |
| CAACTATATG | 0.982 |
| AGGGTACGGA | 1.05 |
| CAGAAAGCGG | 0.953 |
| TTTAGTGATC | 0.99 |
| GTTTTAACGA | 0.966 |
| GGTTCCACGG | 1 |
| TTCTGTGCCC | 1.01 |
| CAAAGATTTA | 0.989 |
| ATTCGTTCT | 0.961 |
| CCAGTATATA | 1.05 |
| ATGCGGGCTC | 0.985 |
| GGTTAACGGC | 0.98 |
| TTACTGGTGC | 1.16 |
| CGGTCCCCAT | 1.01 |
| TCCTATAGGG | 1.03 |
| GTGCGTGTCC | 0.974 |
| CGTTAGAGGG | 0.98 |
| TGTTATAGCT | 1.06 |
| CATCGGAACG | 1.01 |
| AGCAGTCTGG | 0.957 |

| Sequence | switch fluorescence ratio |
| --- | --- |
| GGCAGTTAGT | 1.01 |
| GGATACCAC | 1.03 |
| AAGGTGTATT | 1.04 |
| CTAAAGGGTA | 1.03 |
| TCGGCGCTAT | 2.06 |
| TTGGAGATGA | 1.04 |
| GCATAGGTGT | 1.39 |
| ATGAAGACAA | 1.01 |
| TAGTGGGCAC | 0.876 |
| GTGTTCACTG | 1 |
| GCCGACTTTT | 1.02 |
| CAGTTCCAGG | 1.24 |
| CGGCAGAGGT | 0.972 |
| GATGCTACG | 1.03 |
| TTACCGTCCC | 1.57 |
| GAGAAATAAA | 0.973 |
| AAGGTGAGTC | 1 |
| GCAAAACAAT | 1 |
| GGCCCACATA | 1.01 |
| GGCCTCGTAA | 1.39 |
| CAGAATTGTA | 0.998 |
| GAAGGTTTTG | 0.983 |
| ATGAGGCTAA | 1.02 |
| GAACTTTGTT | 1.05 |
| CCGGTTTCAT | 0.978 |

| Sequence | switch fluorescence ratio |
| --- | --- |
| TAAAAGCGAC | 1.08 |
| CAATTCGTAC | 1.07 |
| TTGCTATAGG | 0.988 |
| GGTAGTTGTT | 0.988 |
| ATTTCGACGC | 2.17 |
| ACTAATAGGT | 1.02 |
| GGCGAATGTC | 0.963 |
| TACCCCCGTG | 1.79 |
| AGCCTGTGTT | 0.986 |
| GCCTGATTAC | 1.05 |
| TGTTTATGTA | 0.981 |
| ACTCGAGATT | 1.04 |
| GCCGTAGGTT | 1.04 |
| TGATAGTTGG | 1.04 |
| GCGTATTTAT | 1 |
| TTTAGTTACC | 1.01 |
| AGTGCAAGG | 1.03 |
| ACTTTCAGTT | 1.02 |
| TACATGGAGC | 0.951 |
| AATGACCAGG | 0.96 |
| GGATGTGCAT | 0.956 |
| GGGCGAGCCC | 1.02 |
| CATCGGGGA | 0.97 |
| AAATGAGAAT | 1.04 |
| ACTAATTTCA | 1.06 |

| Sequence | switch fluorescence ratio |
| --- | --- |
| AGCCCGCTGG | 1.07 |
| CGGTTTTGAT | 0.957 |
| TACATTCCAC | 1.26 |
| TCGCCGTAAT | 1.12 |
| TCGGTTGGTC | 0.984 |
| CCTTCTTACT | 1.27 |
| TCGAGGGCTT | 1.03 |
| ATCATGTAAA | 0.964 |
| TCGCGCGACT | 0.934 |
| TGCCGGTAC | 1.22 |
| TTGGAGGTGT | 1.04 |
| CGGCCGAGCG | 1.01 |
| TCATAGAGTC | 0.953 |
| GCTCTAAGTC | 1.02 |
| TGCTCACATT | 0.963 |
| TATGATGAGA | 0.993 |
| ACATGGTGC | 1.21 |
| GTTTATTAGG | 0.992 |
| AGCATCTCAT | 0.997 |
| AGTGTCTGCC | 1.04 |
| TCGGATTCAG | 0.996 |
| CAGTATCTAA | 1 |
| GTAAACATTT | 1.02 |
| GCGGCGTTTC | 0.97 |
| TGTCTGCGGG | 1.04 |
